# Numbering of substitutions follows the chain as printed; changes in the protein carry UniProt numbers. The list shows a part of the results.
# T1: RBFOX1 RRM (Homo sapiens, UniProt Q9NWB1 109-208)
# T1 sequence: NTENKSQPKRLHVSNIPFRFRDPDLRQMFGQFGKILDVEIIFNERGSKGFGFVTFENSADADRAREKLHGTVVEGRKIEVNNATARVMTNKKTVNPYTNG
# B1: UAGGGUA (DNA:RNA)
# RNA: GGGAGACCGGAAUUCAGAUUGUCCUAGGGUAUUAAAUCCCGUCGUAGCCACCA
# DNA 1: CAATCTGAATTCCGGTCTCCC
# DNA 2: TGGTGGCTACGACGGGATT
# B2: CGUGUAC (DNA:RNA)
# RNA: B1 RNA with U25C, A26G, G27U, G29U, U30A, A31C
# DNA 1: CAATCTGAATTCCGGTCTCCC
# DNA 2: TGGTGGCTACGACGGGATT
# B3: AUCUUUU (DNA:RNA)
# RNA: B1 RNA with U25A, A26U, G27C, G28U, G29U, A31U
# DNA 1: CAATCTGAATTCCGGTCTCCC
# DNA 2: TGGTGGCTACGACGGGATT
# B4: UGUGGCU (DNA:RNA)
# RNA: B1 RNA with A26G, G27U, U30C, A31U
# DNA 1: CAATCTGAATTCCGGTCTCCC
# DNA 2: TGGTGGCTACGACGGGATT
# B5: GCUCCGU (DNA:RNA)
# RNA: GGGAGACCGGAAUUCAGAUUGUCCGCUCCGUUUAAAUCCCGUCGUAGCCACCA
# DNA 1: CAATCTGAATTCCGGTCTCCC
# DNA 2: TGGTGGCTACGACGGGATT
# B6: GGCAGAA (DNA:RNA)
# RNA: B1 RNA with U25G, A26G, G27C, G28A, U30A
# DNA 1: CAATCTGAATTCCGGTCTCCC
# DNA 2: TGGTGGCTACGACGGGATT
# B7: AGCAGAC (DNA:RNA)
# RNA: B1 RNA with U25A, A26G, G27C, G28A, U30A, A31C
# DNA 1: CAATCTGAATTCCGGTCTCCC
# DNA 2: TGGTGGCTACGACGGGATT
# B8: UGAUUAC (DNA:RNA)
# RNA: B1 RNA with A26G, G27A, G28U, G29U, U30A, A31C
# DNA 1: CAATCTGAATTCCGGTCTCCC
# DNA 2: TGGTGGCTACGACGGGATT
# B9: GGAAACU (DNA:RNA)
# RNA: B5 RNA with C26G, U27A, C28A, C29A, G30C
# DNA 1: CAATCTGAATTCCGGTCTCCC
# DNA 2: TGGTGGCTACGACGGGATT
# B10: GCAUGUU (DNA:RNA)
# RNA: B5 RNA with U27A, C28U, C29G, G30U
# DNA 1: CAATCTGAATTCCGGTCTCCC
# DNA 2: TGGTGGCTACGACGGGATT
# B11: UACUCGG (DNA:RNA)
# RNA: B5 RNA with G25U, C26A, U27C, C28U, U31G
# DNA 1: CAATCTGAATTCCGGTCTCCC
# DNA 2: TGGTGGCTACGACGGGATT
# B12: AAGUGCC (DNA:RNA)
# RNA: B1 RNA with U25A, G28U, U30C, A31C
# DNA 1: CAATCTGAATTCCGGTCTCCC
# DNA 2: TGGTGGCTACGACGGGATT
# B13: GAGCCCG (DNA:RNA)
# RNA: B5 RNA with C26A, U27G, G30C, U31G
# DNA 1: CAATCTGAATTCCGGTCTCCC
# DNA 2: TGGTGGCTACGACGGGATT
# B14: UGUCUCG (DNA:RNA)
# RNA: B5 RNA with G25U, C26G, C29U, G30C, U31G
# DNA 1: CAATCTGAATTCCGGTCTCCC
# DNA 2: TGGTGGCTACGACGGGATT
# B15: CUCAACA (DNA:RNA)
# RNA: B1 RNA with U25C, A26U, G27C, G28A, G29A, U30C
# DNA 1: CAATCTGAATTCCGGTCTCCC
# DNA 2: TGGTGGCTACGACGGGATT
# B16: GUAGGGG (DNA:RNA)
# RNA: B5 RNA with C26U, U27A, C28G, C29G, U31G
# DNA 1: CAATCTGAATTCCGGTCTCCC
# DNA 2: TGGTGGCTACGACGGGATT
# B17: UCAAGAU (DNA:RNA)
# RNA: B5 RNA with G25U, U27A, C28A, C29G, G30A
# DNA 1: CAATCTGAATTCCGGTCTCCC
# DNA 2: TGGTGGCTACGACGGGATT
# B18: UGAGCCU (DNA:RNA)
# RNA: B5 RNA with G25U, C26G, U27A, C28G, G30C
# DNA 1: CAATCTGAATTCCGGTCTCCC
# DNA 2: TGGTGGCTACGACGGGATT
# B19: UGUAAGG (DNA:RNA)
# RNA: B5 RNA with G25U, C26G, C28A, C29A, U31G
# DNA 1: CAATCTGAATTCCGGTCTCCC
# DNA 2: TGGTGGCTACGACGGGATT
# B20: UGUAGCA (DNA:RNA)
# RNA: B1 RNA with A26G, G27U, G28A, U30C
# DNA 1: CAATCTGAATTCCGGTCTCCC
# DNA 2: TGGTGGCTACGACGGGATT
# Molecular target: T1, RBFOX1 RRM
# Experiment: EMSA; HiTS-Eq, 1 nM pool, 10 min; buffer printed only for the single-RNA assays: 10 mM Tris pH 7.5, 150 mM NaCl, 3.4 mM EDTA, 0.001% NP-40, 30 C
# Conditions: tags: His6 N-terminal (pET28a); label: 5' 32P
# Outline: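 Relative association constants, normalised to the cognate motif, were derived by comparing read counts of each RNA species with those of the control reaction. The RNA sequenced was the free fraction, separated by 8% native PAGE after a 10 min equilibration in 50 µL of 1 nM 5′-radiolabelled RNA (7 randomized nucleotides) with increasing concentrations of purified wild-type or mutant RbFox RRM.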
row,Binder,binding signal
1,B1,0.0162 KA relative to UGCAUGU
2,B2,0.00932 KA relative to UGCAUGU
3,B3,0.00764 KA relative to UGCAUGU
4,B4,0.0283 KA relative to UGCAUGU
5,B5,0.00637 KA relative to UGCAUGU
6,B6,0.0103 KA relative to UGCAUGU
7,B7,0.00935 KA relative to UGCAUGU
8,B8,0.0139 KA relative to UGCAUGU
9,B9,0.00773 KA relative to UGCAUGU
10,B10,0.635 KA relative to UGCAUGU
11,B11,0.00949 KA relative to UGCAUGU
12,B12,0.0108 KA relative to UGCAUGU
13,B13,0.0175 KA relative to UGCAUGU
14,B14,0.0156 KA relative to UGCAUGU
15,B15,0.00114 KA relative to UGCAUGU
16,B16,0.0113 KA relative to UGCAUGU
17,B17,0.0076 KA relative to UGCAUGU
18,B18,0.0138 KA relative to UGCAUGU
19,B19,0.00889 KA relative to UGCAUGU
20,B20,0.0201 KA relative to UGCAUGU
